± gives the standard deviation of the averaged measurements. This is one part of the list.

The assay relates to PfAP2-I AP2 domain 3 (GST-tagged). The assay can be described thus: gcPBM binding intensity (ln(normalized median fluorescence intensity)); higher = stronger DNA binding. In short, it runs like this:
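Binding intensity is defined as the maximum Masliner-normalised natural-log median intensity across replicate spots for either probe orientation. It was measured on an Agilent 4 × 180k array of primer-extended double-stranded 36-bp intergenic genomic probes and negative controls, to which GST-tagged P. falciparum DNA-binding domains made in E. coli were applied for 1 h in 1× PBS with 1% milk, 0.2 mg/ml BSA, 0.5% salmon testes DNA and 0.03% Triton X-100. Detection was by Alexa488 anti-GST antibody and scanning at 488 nm.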
Turning to “TAAAAATATAAATTTTGTACGTAAAAAATGGTTCTT [XGTACX_site1506]”, the “gcPBM binding intensity (ln)” value was 7.71 ± 0.55. In the case of “TGACCGTTTTAAGAGTGTACAAAAAAAAAAAAAAAA [XGTACX_site4141]”, the “gcPBM binding intensity (ln)” value came out at 8.29 ± 0.67. For “TATTCTATATAATAATGTACGTGATTTAAATTTTCA [XGTACX_site6650]”, the “gcPBM binding intensity (ln)” value worked out at 7.74 ± 0.45. The same measure for “CATATTTGTTGACACACACACATATTTATATAAATA [CACACA_site7648]”: 8.15 ± 0.39; for “GGGAGGATATTACACAGTACCCAGAAAATCTACGGA [XGTACX_site2551]”: 8.08 ± 0.27; for “TTTATATGTTTAAAATGTACATGTGGTAAAAATTTT [XGTACX_site5907]”: 8.33 ± 0.3. For the sequence “TATTCCTTATTATAATTCTTAAATAAAAAAAAAAAA [TGCATGCA_negctrl_site45]”, the “gcPBM binding intensity (ln)” value came out at 7.85 ± 0.58.

Consider “ATATATAAACTGAAGGGTACAATGAAAAAAGAACTT [XGTACX_site7219]”, for which the “gcPBM binding intensity (ln)” value came to 8 ± 0.73.

Consider “TAGGATTTTTAGTTTATTGTAACTATTATTTTATTT [CACACA_negctrl_site829]”, for which the “gcPBM binding intensity (ln)” value is 7.22 ± 0.61. For “CCCATTATTGTTGGGGGTACAATTTTGAATATATAT [XGTACX_site2227]”, the “gcPBM binding intensity (ln)” value turned out to be 9.34 ± 0.085. For “ATATATTTATAATACACATGCAATGATATAATATAT [TGCATGCA_site20]”, the “gcPBM binding intensity (ln)” value turned out to be 8.43 ± 0.75. For the sequence “CATATATACATATATACACACATATATATATATATA [CACACA_site645]”, the “gcPBM binding intensity (ln)” value is 9.28 ± 0.73. In the case of “GTGTGGTTACAGACACGAACACATTTTTTAAATATT [CACACA_negctrl_site83]”, the “gcPBM binding intensity (ln)” value is 7.83 ± 0.28. In the case of “GTAAGAAAGAAAGGAAGTACGTAAGAAAGTAAGAAC [XGTACX_site1239]”, the “gcPBM binding intensity (ln)” value was 8.49 ± 0.84. On to “TTTTTTTTTCTGTGAGTGCATGTAATAAAATAAATT [GTGCAC_site9740]”, for which the “gcPBM binding intensity (ln)” value was 9.305 ± 0.049.

Take “TTAATTAGAAATCATACACACATATATATATATATA [CACACA_site173]”: the “gcPBM binding intensity (ln)” value was 9.48 ± 0.5. The same measure for “CATTCAAACAAAAAAAGTACTCATCACATAATATAT [XGTACX_site1251]”: 7.87 ± 0.3. Regarding “GCAAAATATTTAAAATAATATATGTGTATATTTTTA [GTGCAC_negctrl_site149]”, the “gcPBM binding intensity (ln)” value amounted to 7.18 ± 0.43. In the case of “TTTATATTGTTTTATTGTACATATATATTTATACAT [XGTACX_site6821]”, the “gcPBM binding intensity (ln)” value is 7.83 ± 0.56. With “AAAAAAAAAAAAAAACTTACGATTTTAAAAAGATGG [GTGCAC_negctrl_site291]”, the “gcPBM binding intensity (ln)” value amounted to 8.14 ± 0.64. As for “GAAATGTACAAATACGTACACACATATATATATATA [CACACA_site1541]”, the “gcPBM binding intensity (ln)” value was 9.29 ± 0.27.

As for “AAATATATGAATAAATGTACGAAATGAATGGATGAA [XGTACX_site7108]”, the “gcPBM binding intensity (ln)” value came to 8.1 ± 0.7. Regarding “AAACATGTATTTTATTGTACACATTCATAAATCACA [XGTACX_site1420]”, the “gcPBM binding intensity (ln)” value was 8.13 ± 0.36. Regarding “TTATAATCTTATATATGTACATATATATATTATTAT [XGTACX_site7780]”, the “gcPBM binding intensity (ln)” value was 7.56 ± 0.33.

In the case of “TACATGTATGTAATATGTTTTATTTTTTTCATCTCT [XGTACX_negctrl_site79]”, the “gcPBM binding intensity (ln)” value came out at 7.21 ± 0.4. The same measure for “TTTTAAATATGCAGATGTACATTATAATGTTTTATT [XGTACX_site2079]”: 7.88 ± 0.29. In the case of “TACATATTTTTATATACACACAATAATTATTATAAA [CACACA_site1659]”, the “gcPBM binding intensity (ln)” value is 7.83 ± 0.39.

For the sequence “TATATTTATTATAACACACACATATATATATTATAT [CACACA_site1061]”, the “gcPBM binding intensity (ln)” value amounted to 7.91 ± 0.31.

In the case of “GATATGTACTAATACACACACATATAGATTTATATA [CACACA_site6610]”, the “gcPBM binding intensity (ln)” value is 8.06 ± 0.33. For “TGTTTGAATAACAAAAAAAAAAAAAAAATTAAAAAA [CACACA_negctrl_site1332]” the value was 7.42 ± 0.59. As for “ATTTTAAATGTTATGCGTACATATTAATCCTACTTA [XGTACX_site1344]”, the “gcPBM binding intensity (ln)” value is 7.99 ± 0.33. Take “TTTTAAAAATCTATATGTACACAATACGTCTATAAA [XGTACX_site5787]”: the “gcPBM binding intensity (ln)” value is 8.08 ± 0.26. “TATGAAAATGTTCATACACACATAAAAAAAAAAAAA [CACACA_site3236]”: the “gcPBM binding intensity (ln)” value worked out at 7.91 ± 0.38. As to “TACACATACACATACACACGCATAGAAACATACGAA [CACACA_site2137]”, the “gcPBM binding intensity (ln)” value was determined as 8.04 ± 0.45. As to “AAAAAAAAAAAAAACACACAAACGCTTTTTTTTTTT [CACACA_site686]”, the “gcPBM binding intensity (ln)” value is 8.4 ± 0.93. “TTATTTACCATCTCTACACACAAAAATTGATGTAGA [CACACA_site2811]”: the “gcPBM binding intensity (ln)” value is 7.75 ± 0.4. For the sequence “ATATGTATTAAGTGTACACATATAATGTATTTTGTT [CACACA_site4177]”, the “gcPBM binding intensity (ln)” value is 8.02 ± 0.47.

Regarding “TCATAATGAAAACAAGCACACATACATAAAATAAAA [CACACA_site9069]”, the “gcPBM binding intensity (ln)” value turned out to be 7.82 ± 0.57. On to “TAAATTATATTATGCACACTTAAAAATATATTTAAC [CACACA_site3512]”, for which the “gcPBM binding intensity (ln)” value came to 10.4 ± 0.49. On to “TTTTTATATATCACGTGTACATATTTATTTTTACTC [XGTACX_site8049]”, for which the “gcPBM binding intensity (ln)” value worked out at 8.05 ± 0.49.

As for “GAATCATCCAAAATTGCATGCAAGGAAGAAGAAAAA [TGCATGCA_site764]”, the “gcPBM binding intensity (ln)” value was 7.83 ± 0.84. Consider “ATATGTAATAATAAATGTACGAAACATTGAACGATG [XGTACX_site1266]”, for which the “gcPBM binding intensity (ln)” value was found to be 7.97 ± 0.65. Regarding “CGTATGAAACATATATGTACTTATAAAAATATAACC [XGTACX_site7539]”, the “gcPBM binding intensity (ln)” value turned out to be 7.95 ± 0.4. Turning to “AAATCACCTTAAGAACGTACAAACAGAAAAAAATTA [XGTACX_site4623]”, the “gcPBM binding intensity (ln)” value came to 7.83 ± 0.54.

As for “TTTATTATATTTATATGTACTTATATAATATATGCA [XGTACX_site1906]”, the “gcPBM binding intensity (ln)” value stood at 7.86 ± 0.3.

Source of the values: the supplement of paper PMC11417369.
